# Data published in the supplement of paper PMC10126150.
# Values marked as one replicate rest on one cluster of the flow cell; about a third of the high ones do not repeat.
# Tested on: ATP
# Test: switch fluorescence ratio, 500 uM ATP over buffer (Cy3 cluster intensity, sum of 5 cycles each) (fold (ratio)); higher = stronger signal-on switching upon ATP binding; sequences stand for … in TCGTCGGCAGCGTCAGATGTGTATAAGAGACAGTTTTTTTTTTTTTTTTTTTTTTTTT…TC
# Conditions: aptamer strand: ATP DNA aptamer (quencher-CACCTGGGGGAGTATTGCGGAGGAAGG + anchor), 100 nM annealed; ATP concentration: 500 uM; one replicate
# In short: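 Exposure to 500 uM ATP lasted 15 min at 22 °C before imaging, and a selection-buffer image was taken beforehand, for Cy3-labelled switching-strand clusters on a modified Illumina MiSeq flow-cell annealed to 100 nM quencher-labelled ATP aptamer. Five buffer/ATP cycles were run with NaOH stripping and re-annealing between them. The fluorescence ratio per cluster is summed target-cycle over summed buffer-cycle Cy3 intensity, averaged per switch-domain sequence. Clusters outside 100-1000 RFU were excluded.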
row,Sequence,switch fluorescence ratio
1,CACAGGTAGG,1.07
2,CACATAATTA,1.01
3,CACATCACGG,1.75
4,CACATCGCGG,0.978
5,CACATGCGGG,0.99
6,CACATGTGAA,1.02
7,CACATTACTA,1.34
8,CACCAGCGGC,1.05
9,CACCCAAGTG,2.32
10,CACCCTAATT,1.28
11,CACCGATAGA,1.05
12,CACCGTAGAT,1.25
13,CACCGTTGA,1.07
14,CACCTCTGAA,1.07
15,CACCTGCGAA,1.15
16,CACCTGCGAC,1.78
17,CACCTGGTGC,2.15
18,CACCTTAGTA,1.05
19,CACCTTTAAC,0.988
20,CACGACGTGG,1
21,CACGAGGATG,1.03
22,CACGAGGGTT,1.04
23,CACGAGTATT,1.04
24,CACGATAGCC,1.21
25,CACGATGCGG,0.996
26,CACGCGTCCA,0.999

row,Sequence,switch fluorescence ratio
1,CACGGCTGCT,1.06
2,CACGGGAACC,1.01
3,CACGGGACGA,1.05
4,CACGGTGGGG,1
5,CACGGTTGCG,1.01
6,CACGGTTGTA,0.977
7,CACGTCTGCA,1.12
8,CACGTCTGGA,0.975
9,CACGTTGGTA,1
10,CACTAATATA,0.984
11,CACTACAGCC,1.07
12,CACTACGATG,1.03
13,CACTAGGACG,1.1
14,CACTAGGGTA,0.97
15,CACTAGTCGT,0.997
16,CACTATGCTA,1.1
17,CACTCCAGAC,1.53
18,CACTCGCTGT,1.11
19,CACTCGGATT,0.996
20,CACTGAGACA,1.05
21,CACTGGCAGG,0.974
22,CACTGGCGAA,1.03
23,CACTGGGCAG,0.96
24,CACTGGGCTA,0.952
25,CACTGTAGCT,1.2
26,CACTGTATAC,1.66

row,Sequence,switch fluorescence ratio
1,CACTTACCTG,1.18
2,CACTTAGAAA,1.01
3,CACTTAGAGC,1.1
4,CACTTATACA,1.12
5,CACTTCTGTA,1.03
6,CACTTGAGG,1.02
7,CACTTGATGG,1.01
8,CACTTTATTA,1.05
9,CACTTTGATA,0.987
10,CACTTTTCTG,0.998
11,CAGAAAAAAA,1.14
12,CAGAAAGATT,0.976
13,CAGAACGTAC,1.74
14,CAGAAGCGCA,1.04
15,CAGAAGGAAA,0.963
16,CAGAAGTGGT,0.981
17,CAGAATCTCA,1
18,CAGAATTGGA,0.958
19,CAGAATTGTT,0.976
20,CAGACCATCC,2.16
21,CAGACTAGGT,1.04
22,CAGACTTCAG,1.02
23,CAGAGACTGT,0.969
24,CAGAGATGTC,1.04
25,CAGAGCGCCT,1.03
26,CAGAGCGTAA,1.19

row,Sequence,switch fluorescence ratio
1,CAGAGGCAGA,1.42
2,CAGAGGGTCA,0.962
3,CAGAGGTGCT,1.06
4,CAGAGTATAG,1.01
5,CAGATAACGG,1.02
6,CAGATACGT,1.05
7,CAGATCTTTG,1
8,CAGATGGGGG,1
9,CAGATTTGTA,1.02
10,CAGCAAAAGA,1.04
11,CAGCAAACGG,1.79
12,CAGCAATAGA,2.08
13,CAGCACAAAT,1.04
14,CAGCAGTTGT,0.994
15,CAGCCCAGCC,1.03
16,CAGCCCGCCA,1.34
17,CAGCCTCATA,1.02
18,CAGCGATTCG,0.999
19,CAGCGGCAGA,1.02
20,CAGCGGCGTG,0.948
21,CAGCGTCAG,1
22,CAGCGTCTGA,1.01
23,CAGCTAATGG,1.25
24,CAGCTACGT,1.01
25,CAGCTAGCAG,1.02
26,CAGCTATTA,1.05

row,Sequence,switch fluorescence ratio
1,CAGCTCTTAA,1.02
2,CAGCTCTTGC,0.97
3,CAGCTGTTCT,1.01
4,CAGCTTTCTC,1.39
5,CAGGAACCCA,0.99
6,CAGGAAGACG,0.977
7,CAGGAAGATA,1.05
8,CAGGAAGCTA,1.17
9,CAGGAATACG,2.54
10,CAGGAGGTG,1.02
11,CAGGAGTTT,1
12,CAGGATCGTA,0.954
13,CAGGATTATG,1.04
14,CAGGCCAACG,1.03
15,CAGGCCCCCG,1.05
16,CAGGCGCGCT,1.03
17,CAGGCTAAGC,1.01
18,CAGGCTCAAA,1
19,CAGGCTGGTA,0.974
20,CAGGGACTAA,1.01
21,CAGGGCTAAG,1.01
22,CAGGGGAGAT,1.03
23,CAGGGGCTAT,1.02
24,CAGGGTAAGC,1.03
25,CAGGGTAAGT,1.01
26,CAGGGTTCCT,1.04

row,Sequence,switch fluorescence ratio
1,CAGGTAATCT,1.02
2,CAGGTAGTTA,0.97
3,CAGGTCACGA,0.988
4,CAGGTGTTG,1.32
5,CAGGTTGCCC,0.992
6,CAGTAATCCT,1.07
7,CAGTACAAA,1.01
8,CAGTAGTCTG,0.975
9,CAGTAGTTCT,1.02
10,CAGTATGAAG,0.972
11,CAGTATTTGT,0.999
12,CAGTCAATTC,2.6
13,CAGTCACCGT,0.999
14,CAGTCATACT,1.1
15,CAGTCCGTGA,1.36
16,CAGTCCTCGT,0.987
17,CAGTCGTCGT,1.04
18,CAGTCGTTAG,1.01
19,CAGTGCCGCC,1.06
20,CAGTGCCTGC,0.945
21,CAGTGCGCGA,1.68
22,CAGTGGAGAT,1.01
23,CAGTGGCTCT,1.02
